In PubChem BioAssay AID1508642 (National Center for Advancing Translational Sciences (NCATS), 2021):
The whole screen tested about 43,000 compounds, of which about 200 (0.47%) were called active. Roughly 12% stayed inconclusive and do not appear here. Calls follow the shape of the dose curve; as a rule, active = well fitted cell-killing curve with a large enough effect; inconclusive = small, poorly fitted or top-dose-only effect, or effect the other way; inactive = flat fitted curve, though single readings scatter. The list shows a part of the results.

Assay: Cell viability qHTS assay in S16 Pmp22-F2sN cells; also: nearly all actives have a fitted effect of over 65% in size
Conditions: S16 Pmp22-F2sN Schwann cells (luciferase reporters placed in the Pmp22 gene) viability, CellTiter-Glo, 24 h; series mostly up to 57.5 µM; activity change, negative = cytotoxicity: at the top concentration
Procedure, shortened: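 Luminescence from CellTiter-Glo, read by CCD camera after a 15 min room-temperature incubation, served as the viability signal. Reporter Schwann cells (S16 Pmp22-F2sN) had been treated with pin-transferred compounds for 24 h at 37C.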
% is scaled to controls: 0 for no effect and ±100 for the full control effect.

Compound | activity change, negative = cytotoxicity
CCOc1ccc(N(C(C)C(=O)NCCSc2ccc(Cl)cc2)S(C)(=O)=O)cc1 (stereo not given) | inactive: -4.05%
COc1ccc(N2Cc3cccc(C(=O)Nc4ccc(Cl)cc4)c3C2=O)cc1 | inactive: 3.73%
CCOc1ccc(-c2nonc2NC(=O)c2oc3cc(C)ccc3c2C)cc1OCC | inactive: -9.74%
O=C(COc1ccc(F)cc1)Nc1nnc(SCc2cc(=O)n3ccccc3n2)s1 | inactive: -14.7%
COc1ccc(C)cc1NC(=O)C(Cc1ccccc1)NS(=O)(=O)c1ccc(Br)s1 (stereo not given) | inactive: 1.47%
Cc1ccc(CN(Cc2ccco2)C(=O)COc2cccc(C)c2C)o1 | inactive: -14.9%
CCOC(=O)C1CCCN(C(=O)c2ccc3c(c2)sc2nc(-c4ccc(C)cc4C)cn23)C1 (stereo not given) | inactive: -7.64%
O=C(Nc1nc2n(n1)C(c1ccccc1)C=C(c1ccc(Cl)cc1)N2)c1ccco1 (stereo not given) | inactive: -15.3%
COc1cccc(Cn2c(SCc3ccc(C(=O)N4CCCCC4)cc3)nc3ccncc32)c1 | inactive: -20.2%
Cc1cc(Cl)ccc1NC(=O)CN1C(=O)COc2ccc(S(=O)(=O)Nc3ccccc3)cc21 | inactive: 2.14%
Cc1ccc(Cl)cc1NC(=O)CCc1c(C)nc2c3cccnc3nn2c1C | inactive: -9.71%
O=C(c1cccc(Cl)c1)N1c2ncnn2C2(CCCCC2)[C@@H]2CCCC[C@@H]21 | inactive: -4.31%
Cc1ccc2c(=O)cc(C(=O)Nc3sc4c(c3C(=O)NCC3CCCO3)CCCC4)oc2c1C (stereo not given) | inactive: 3.8%
CC(C)(C)OC(=O)N1CCC(c2c(C(=O)NCCN3CCOCC3)cnn2-c2ccc(F)cc2)CC1 | inactive: -0.527%
COc1ccc(-c2ccc3c(N)c(C(=O)NCc4ccc(C)cc4)sc3n2)cc1 | inactive: 6.48%
Cc1ccc2c(c1)N(C(=O)N1CCC(C(=O)NCCc3ccccc3)CC1)CC(C)O2 (stereo not given) | inactive: -2.36%
Cc1ccc(NC(=O)CSc2nc3ccc(NC(=O)CCc4ccccc4)cc3s2)cc1 | inactive: 25.9%
CCN1CCN(Cc2c(O)ccc3c(=O)c(Oc4ccccc4C(C)C)c(C(F)(F)F)oc23)CC1 | inactive: -2.41%
CCCN1CCN(CCCNC(=O)Cn2nc(C)n3c(cc4c(OC)cccc43)c2=O)CC1 | inactive: 8.27%
COc1ccc(C(=O)N(Cc2ccc(N(C)C)cc2)CC2CCCO2)cc1 (stereo not given) | inactive: 18.1%

Compound | activity change, negative = cytotoxicity
COc1ccc(NC(=O)CSc2cn(CCNC(=O)c3c(F)cccc3F)c3ccccc23)cc1 | inactive: 7.49%
CC(=O)Nc1ccc2nc(NC(=O)CS(=O)(=O)c3ccc(C)cc3)sc2c1 | inactive: -1.3%
CCC(C)n1c(=N)c(C(=O)NC2CCCCC2)cc2c(=O)n3ccccc3nc21 (stereo not given) | inactive: -20%
COc1ccc(C2=Nc3ccc(OC(F)(F)F)cc3NC(c3cccnc3)=N2)cc1 | inactive: -17.7%
Cc1ccc(C)c(N2CCN(S(=O)(=O)c3cn(C)c(C)n3)CC2)c1 | inactive: 7.19%
Cc1ccc(CNC(=O)c2cc3ccc4cccnc4c3[nH]2)cc1 | inactive: 0.604%
Cc1ccc(NC(=O)Cn2cnc3c2c(=O)n(C)c(=O)n3C)cc1C | inactive: -19.5%
CCN(C(=O)Cn1c(=O)n(Cc2ccccc2)c(=O)c2c1c1cc(OC)ccc1n2C)c1ccccc1 | inactive: 25.3%
COc1ccc(-c2noc(-c3ccc(NC4CCCC4)c([N+](=O)[O-])c3)n2)cc1OC | inactive: -7.9%
Cc1ccccc1CNC(=O)c1ccc2nc(C(C)C)oc2c1 | inactive: 1.42%
COc1cc(Cl)c(C)cc1NC(c1ccccc1)c1nnc(-c2ccccc2Cl)o1 (stereo not given) | inactive: -12.3%
Cc1ccc(C)c(CSc2nnc3[nH]c(=O)cc(-c4ccccc4)n23)c1 | inactive: 13.4%
COc1ccc(CNC(=O)C2CCN(S(=O)(=O)c3ccc4c(c3)CCCN4C(C)=O)CC2)cc1 | inactive: 0.244%
COCc1cc(C)nc2sc3c(=O)n(-c4ccccc4C(F)(F)F)nnc3c12 | inactive: -6.48%
CCc1ccccc1NC(=O)c1sc(-n2nc(C)c(Cc3ccccc3)c2C)nc1C | inactive: -14.8%
Cc1cccc(NC(=O)C2CCN(S(=O)(=O)c3ccc4c(c3)CCCN4C(=O)C3CCC3)CC2)c1 | inactive: -24.5%
COCCCn1c(=O)c2sccc2n2c(CCCC(=O)NC3CCC(C)CC3)nnc12 (stereo not given) | inactive: 16.1%
Cc1cccc(C)c1-n1ncc(C(=O)N2CCN(c3ncccn3)CC2)c1C1CCN(C(=O)OC(C)(C)C)CC1 | inactive: 6.04%
CCCn1cc(S(=O)(=O)c2cc(C)ccc2C)c(=O)c2cc(F)c(N3CCN(CC)CC3)cc21 | inactive: -12.3%
CCOC(=O)c1c(S(=O)(=O)NCC(=O)NCc2ccccc2Cl)c(C)n(C)c1C | inactive: -11.4%

Compound | activity change, negative = cytotoxicity
CCOCCc1nnc(NC(=O)C(=O)c2cc(C)n(-c3ccc(Cl)cc3)c2C)s1 | inactive: -1.04%
Cc1cc2n(n1)CCCN2C(=O)Nc1ccc(F)c(Cl)c1 | inactive: 2.87%
Cc1cc(OCC(=O)N2CCC(c3nc4ccccc4s3)CC2)ccc1Cl | inactive: -2.23%
O=C(CSc1ncc(-c2ccccc2)[nH]1)Nc1cccc(Br)c1 | inactive: -24.1%
Cc1ccc(-c2nnn3c2nc(NC2CCC(C)CC2)c2ccccc23)cc1 (stereo not given) | inactive: 7.43%
COc1cccc(-n2c(C)nc3cc(C(=O)O)ccc32)c1 | inactive: -0.948%
COc1cc2nc(NC(=O)c3ccc(S(=O)(=O)N4CCc5ccccc54)cc3)sc2cc1OC | inactive: 0.117%
CC1CCCCN1C(=O)c1ccc2c(c1)N(Cc1ccc(F)cc1)C(=O)c1ccccc1S2(=O)=O (stereo not given) | inactive: 18.3%
COC(=O)CN1C(C(=O)c2ccccc2)=C(OC(=O)c2ccc(F)cc2)c2ccccc2S1(=O)=O | inactive: 8.76%
CCC1CCCCN1C(=O)CSc1nnc(-c2ccc(OC)c(OC)c2)o1 (stereo not given) | inactive: 5.3%
CCOC(=O)c1ccc(NC(=O)N2CC3CCCN3c3ccccc32)cc1 (stereo not given) | inactive: -21.2%
Cc1ccc2nc(-c3cccs3)c(Nc3ccc4c(c3)OCCO4)n2c1 | inactive: 1.58%
CCOC(=O)N1CCN(Cc2nc3cc(NC(=O)c4ccccc4Cl)ccc3n2C(C)C)CC1 | inactive: -19.7%
CC(=O)N1CCc2c(sc3c2c(=O)n(-c2ccccc2Cl)c(=O)n3Cc2cccc(C)c2)C1 | inactive: 12.6%
CC(=O)c1cccc(NC(=O)CCc2c(C)nc3nc(CN)nn3c2C)c1 | inactive: -14.7%
COc1ccccc1NC(=O)CSc1cn(CC(=O)N2CCCC2)c2ccccc12 | inactive: 10.9%
CCOc1ccc(NC(=O)c2ccc(F)c(S(=O)(=O)N(Cc3ccc(C(=O)OC)cc3)Cc3ccc(OC)c(OC)c3)c2)cc1 | inactive: 6.54%
CCOc1ccc(N2CC(C)Cn3c2nc2c3c(=O)n(Cc3c(F)cccc3Cl)c(=O)n2C)cc1 (stereo not given) | inactive: 2.45%
O=C(Cn1cc(C(=O)c2ccco2)c2ccccc21)Nc1ccccc1 | inactive: 5.13%
CN(C)c1ncc(C(=O)NCc2ccc(Cl)cc2)cn1 | inactive: -2.76%
